PubChem BioAssay AID463173 (ICCB-Longwood Screening Facility, Harvard Medical School, 2010)
In all, about 52,000 compounds went through this assay and about 4,300 (8.3%) were called active. No stated cut-off is given here; in the data, active means survival mostly below about 52% (no sharp cut-off); inactive means mostly above about 56%. The list shows a part of the results.

The molecules below were run on DeltatarO mutant (assay: growth inhibition of S. aureus wild type versus tarO mutant, primary screen, teichoic acid synthesis inhibitors, RN4220, OD600 (AID 463173)). Conditions: OD600, 18 h, stronger effect = lower value, screened at 18.75 µg/mL (by protocol).

SMILES | survival
CCNc1ccc(-c2nc(-c3ccccn3)no2)cc1[N+](=O)[O-] | inactive: 60%
COc1ccc(-c2onc(C)c2C)cc1S(=O)(=O)NCC(C)c1ccccc1 (stereo unspecified) | inactive: 79%
COc1ccc(N(CCC#N)S(=O)(=O)c2cccc3nsnc23)cc1 | inactive: 100%
Cc1cc(NC(=O)COCc2cc(-c3ccc(F)cc3)on2)ccc1Br | inactive: 115%
O=C(CCCCn1c(=O)c2ccccc2n(Cc2ccccc2Cl)c1=O)NCc1ccc2c(c1)OCO2 | inactive: 78%
CCc1ccc(N2CC34C=CC(O3)C(C(=O)O)C4C2=O)cc1 (stereo unspecified) | inactive: 104%
CCCN(CCC)C(=O)Cn1nnc2sc(-c3ccccc3)cc2c1=O | inactive: 70%
O=c1c2cnn(-c3ccc(F)cc3)c2ncn1Cc1cccc(Cl)c1 | inactive: 104%
CCn1c(=O)c2cc(C(=O)NCCCOC)sc2c2ccccc21 | inactive: 103%
Cc1cc(C)n(-c2nc3ccccc3nc2Nc2ccc(Cl)cc2Cl)n1 | inactive: 75%
COc1ccc(CNC(=O)CCC2N=C3c4ccccc4N=C(SCc4cccc(F)c4)N3C2=O)cc1 (stereo unspecified) | inactive: 117%
COc1ccc(S(=O)(=O)n2nc(C)c(S(=O)(=O)N3CCCCCC3)c2C)cc1 | inactive: 76%
Cc1cc(C)n2c(Nc3ccc4c(c3)OCCO4)c(-c3ccc(Cl)cc3)nc2n1 | inactive: 120%
Cc1ccccc1NC(=O)NCCCN1CCN(c2ccccc2F)CC1 | inactive: 130%
O=C(CNS(=O)(=O)c1ccccc1)N1CCCC1 | inactive: 82%
Cc1ccc(C(=O)c2cn(Cc3cccc(C)c3)c3nc(C)ccc3c2=O)cc1 | inactive: 54%
Cc1nn2c(=O)cc(COC(=O)c3cccc(NC(=O)COc4ccccc4Cl)c3)nc2s1 | inactive: 85%
COc1ccc(NC(=O)Cn2c(=O)n(-c3ccccc3)c(=O)c3c4c(sc32)CCCC4)c(OC)c1 | inactive: 94%
CCOC(=O)/C(C#N)=C\C1=C(N2CCCC2)CC(C)(C)OC1 | inactive: 91%
Cc1ccc(CNC(=O)c2nc(SCc3ccc(F)cc3)ncc2Cl)cc1 | inactive: 71%
CC(C)Oc1ccc(CNS(=O)(=O)c2ccc3c(c2)C(C)(C)C(=O)N3C)cc1 | inactive: 84%
Cc1ccc(NC(=O)CSc2ncc(S(=O)(=O)c3ccc(C(C)C)cc3)c(=O)[nH]2)cc1C | inactive: 87%
CCOc1ccccc1CN(CCc1ccc2c(c1)OCO2)Cc1ccccn1 | inactive: 77%

SMILES | survival
CCC1CCCCN1CCCNC(=O)c1ccc2c(c1)N(Cc1ccccc1F)C(=O)c1ccccc1S2(=O)=O (stereo unspecified) | inactive: 133%
CC1CCN(C(=O)CSc2nc(-c3ccc(C(C)C)cc3)no2)CC1 | inactive: 76%
COc1ccc(CCNC(=O)c2cc(C)nc3c2c(C)nn3-c2ccccc2)cc1OC | inactive: 92%
CCc1ccc(NC(=O)c2cc(S(=O)(=O)N3CCCC3)ccc2F)cc1 | inactive: 95%
Cc1ccc(C(=O)Nc2ccc3c(c2)N(C)C(=O)c2ccccc2S3)cc1 | inactive: 97%
CCCS(=O)(=O)N1CC(=O)N(c2ccccc2F)C(C)(C(=O)NC2CCCCCC2)C1 (stereo unspecified) | inactive: 83%
COc1cc(CNC(=O)CSCc2nc3cccnc3n2C2CCCCC2)cc(OC)c1OC | inactive: 116%
CC(C)=NNS(=O)(=O)c1ccc(N2CCCC2=O)cc1 | inactive: 71%
CCOc1cc(C#N)c(NC(=O)c2cccc(S(=O)(=O)N3CCOCC3)c2)cc1OCC | inactive: 118%
O=C(CCNS(=O)(=O)c1ccc2c(c1)CCCC(=O)N2)NCc1ccccc1Cl | inactive: 87%
CCC(=O)N1CCc2cc(CNC(=O)Nc3ccccc3Cl)ccc21 | inactive: 78%
Cc1ccc(/C=[N+](\[O-])c2ccc(N(C)C)cc2)c2nsnc12 | inactive: 52%
Cc1nc2sccn2c(=O)c1S(=O)(=O)Nc1ccc(N2CCN(S(C)(=O)=O)CC2)cc1 | inactive: 127%
CCC(=O)N1c2ccccc2CC1C(=O)NCCN1CCN(c2cccc(C)c2C)CC1 (stereo unspecified) | inactive: 77%
Cc1ccc(-c2nc3ccccc3o2)cc1NC(=O)c1cccc2c(Cl)cccc12 | active: 47%
O=C(Nc1ccc(N2CCCCC2)cc1)c1cccnc1 | inactive: 106%
Cc1cccc(Nc2nc(-c3ccccc3)c3cc(C)ccc3n2)c1 | active: 3%
O=[N+]([O-])c1cc(-c2nc(-c3ccccc3)no2)ccc1N1CCCC1 | inactive: 63%
Cc1ccccc1NCc1cccn1-c1nnc(N2CCOCC2)s1 | inactive: 112%
Cc1nc2cc(-c3ccc(Br)cc3)[nH]n2c(=O)c1Cl | inactive: 79%
CC(C)OCCCn1c(SCC(=O)Nc2ccc(F)cc2)nc2c(sc3ccccc32)c1=O | inactive: 108%
Cc1ccc(NC(=O)CSc2nnc3[nH]c(=O)cc(C)n23)cc1Cl | inactive: 82%
Cc1sc2c(c1C)c(=O)n(-c1ccccc1)c(=O)n2CC(=O)c1ccc(Cl)cc1 | inactive: 71%

SMILES | survival
COc1cccc(CNC(=O)CCc2nnc3n(CC(C)C)c(=O)c4ccccc4n23)c1 | inactive: 85%
CC(C)CC(=O)N1CC(=O)Nc2ccc(F)cc2C1c1ccccc1 (stereo unspecified) | inactive: 144%
CCC(Sc1nc2c(sc3ccccc32)c(=O)n1CCCC(=O)NC1CCCC1)C(=O)Nc1cccc(OC)c1 (stereo unspecified) | inactive: 114%
CC1(C)OC2C(CS(C)(=O)=O)OC(n3ncc(=O)[nH]c3=O)C2O1 (stereo unspecified) | inactive: 86%
Cn1c(CNC(=O)CSc2n[nH]c(-c3ccccc3)n2)nc2ccccc21 | inactive: 89%
CC(C)(C)C1CCc2c(sc(NC(=O)Cn3nnc(-c4cccc(C(F)(F)F)c4)n3)c2C#N)C1 (stereo unspecified) | inactive: 84%
CCCCCOC(=O)CSc1nc2sc3c(c2c(=O)n1Cc1ccccc1)CC(C)(C)OC3 | active: 41%
O=C(Cn1c(=O)n(-c2ccc(Cl)cc2)c(=O)c2c3c(sc21)CCC3)c1ccc(F)cc1 | inactive: 51%
CCCCc1nn2c(=O)cc(COC(=O)c3ccc(NC(=O)c4cccs4)cc3)nc2s1 | inactive: 75%
Fc1ccc(Nc2nc3nonc3nc2Nc2cccc(C(F)(F)F)c2)cc1 | active: -2%
COc1ccccc1N1CCN(C(=O)CSc2nc3ccccc3nc2Cc2ccc(F)cc2)CC1 | inactive: 95%
COc1ccccc1Cn1c(CNS(=O)(=O)c2ccc3c(c2)CCCC3)nc2cccnc21 | inactive: 96%
COc1ccccc1OCCSc1ncnc2nc[nH]c12 | inactive: 75%
Cc1csc2nc(COc3ccc(NC(=O)COc4ccccc4F)cc3)cc(=O)n12 | inactive: 70%
C=CCNCc1cc2cc(OCC)ccc2[nH]c1=O | inactive: 97%
O=C(NC1(C(F)(F)F)NC(=O)N(CCc2ccccc2)C1=O)c1ccccc1Cl (stereo unspecified) | inactive: 58%
C/C(=N/O)c1[nH]c(C)c(/C(C)=N\O)c1C | inactive: 81%
Cc1cccc(NC(=O)CSc2nnc(N)s2)c1 | inactive: 149%
CC(=O)c1cccc(NCc2ccccc2-c2nnc(-c3ccccc3)o2)c1 | inactive: 87%
CCOc1ccc(S(=O)(=O)N2CCC(N3CCN(Cc4ccc(F)cc4)C(=O)C3=O)CC2)cc1 | inactive: 75%
Cc1nc(-n2nc(C)c(Cc3ccccc3Cl)c2C)sc1C(=O)N1CCC(C)CC1 | inactive: 79%
CCOC(=O)C(CC)Sc1ncnc2sc3c(c12)CCCC3 (stereo unspecified) | active: -7%
CCC(C)NS(=O)(=O)c1ccc(-n2cnnn2)cc1 (stereo unspecified) | inactive: 107%

SMILES | survival
O=C(CCn1cccn1)NCc1ccc(Cl)cc1 | inactive: 73%
Cc1ccc(OCCSc2nc3ccc(NC(=O)c4ccc5c(c4)OCO5)cc3s2)cc1 | inactive: 87%
COc1ccc(NC(=O)c2cc3c(=O)n(C)c4ccccc4c3s2)cc1Cl | inactive: 80%
CCOC(=O)C1CCCN(C(=O)c2c(C)nn(-c3ccc(F)cc3)c2-n2cccc2)C1 (stereo unspecified) | inactive: 113%
O=C(Nc1ccc(F)cc1)C1CCN(c2nc3ccccc3n3cccc23)CC1 | inactive: 75%
CCCc1ccc(OC(=O)CSc2nnc(-c3cccs3)o2)cc1 | inactive: 64%
CCS(=O)(=O)N1CCc2cc(C(=O)Nc3cccc(C)c3C)ccc21 | inactive: 80%
CCOc1ccc(-c2cc3c(=O)n(CC(=O)NCc4ccc(OC)cc4)ccn3n2)cc1 | inactive: 96%
Cc1nn2c(=O)cc(COC(=O)c3cccc(NC(=O)COc4ccc(C)c(C)c4)c3)nc2s1 | inactive: 69%
Cc1c(-c2nsc(NC(=O)c3cccs3)n2)nnn1-c1ccc(Cl)cc1 | inactive: 81%
CCN(CC)CCCNC(=O)c1ccc2c(c1)N(Cc1c(F)cccc1Cl)C(=O)c1ccccc1S2 | inactive: 137%
CCSc1ncc(Cl)c(C(=O)N(Cc2ccccc2Cl)C2CCS(=O)(=O)C2)n1 (stereo unspecified) | inactive: 83%
O=C(C1CCN(S(=O)(=O)c2cccs2)CC1)N1CCN(c2cccc(Cl)c2)CC1 | inactive: 64%
O=C(NCCc1ccc(Cl)cc1)C(=O)NCC(c1ccco1)S(=O)(=O)c1cccs1 (stereo unspecified) | active: 20%
CSc1ncc2c(n1)-c1ccccc1N(Cc1ccc(F)cc1)S2(=O)=O | inactive: 126%
COC(=O)c1nnn(CC(=O)Nc2cc(F)ccc2F)c1C(=O)OC | inactive: 139%
COCCSc1nnc(NC(=O)C2CCCO2)s1 (stereo unspecified) | inactive: 111%
COc1ccc(C(CN)c2c[nH]c3ccccc23)cc1 (stereo unspecified) | inactive: 107%
Cc1oc2ccc(O)c(CN3CCCCCC3)c2c1C(=O)Nc1cccc(Cl)c1C | inactive: 94%
Cc1cccc(-n2ncc(C(=O)N3CCc4ccccc4C3)c2C2CCN(C(=O)OC(C)(C)C)CC2)c1 | inactive: 102%
CS(=O)(=O)N1CCC(NC(=O)Cc2ccccc2)CC1 | inactive: 78%
CCCn1c(=N)c(C(=O)NCc2cccnc2)cc2c(=O)n3cccc(C)c3nc21 | inactive: 53%
